The values that follow come from the supplement of paper PMC11417369.

± gives the standard deviation of the averaged measurements. This is one part of the list.

This assay has as its system PfAP2-EXP AP2 domain (GST-tagged). The assay can be described thus: gcPBM binding intensity (ln(normalized median fluorescence intensity)); higher = stronger DNA binding. The essentials: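 Plasmodium falciparum DNA-binding domains carrying a GST tag were expressed in E. coli and applied for 1 h, at about 25 μg on average, to an Agilent 4 × 180k array. The array held primer-extended double-stranded 36-bp intergenic genomic probes together with negative controls, and binding took place in 1× PBS with 1% milk, 0.2 mg/ml BSA, 0.5% salmon testes DNA and 0.03% Triton X-100. An Alexa488 anti-GST antibody detected bound protein, and the array was scanned at 488 nm. Binding intensity is taken as the highest Masliner-normalised natural-log median intensity across replicate spots of either probe orientation.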
In the case of “TATAATATATCTGTAACACACAAAAGTTATATACTT [CACACA_site5578]”, the “gcPBM binding intensity (ln)” value worked out at 8.23 ± 0.4.
On to TCATAGGGGTAGAAGGTGCAATAAAAAAGAAGAAAA, for which the “gcPBM binding intensity (ln)” value was determined as 9.34 ± 0.071.
Take “TCATTCTAAATATAAACACACATAAATATATACATT [CACACA_site3354]”: the “gcPBM binding intensity (ln)” value is 8.54 ± 0.69.
With “AATATATAATTTTTAACACACAAAAAAAAAAAAAAT [CACACA_site3581]”, the “gcPBM binding intensity (ln)” value was 8.56 ± 0.52.
For “AAAAAAAAAAAAAAAACACACACATATAATATATTT [CACACA_site8369]” the value was 8.59 ± 0.19.
Turning to “ATTGCGTGATAATAATGTACAAAAAGTAATTTATAT [XGTACX_site8339]”, the “gcPBM binding intensity (ln)” value is 8.48 ± 0.45.
Next, “GGTACGTATTTCAATGCATGTCCATGTACATATAAA [TGCATGCA_site208]”: 9.17 ± 0.38.
As to “CTATAATGTTTCTTTCAACACACAAAAAATGAACAC [CACACA_site8438]”, the “gcPBM binding intensity (ln)” value is 8.88 ± 0.38.
For “CATACGTTCTAATATATACACACCTGGTATTAATTA [CACACA_site2221]”, the “gcPBM binding intensity (ln)” value was 8.62 ± 0.45.
For “AAAAAAAAAAAAAAAAGTACAAAAATATATATGCAT [XGTACX_site8392]” the value was 8.72 ± 0.5.
Regarding “TATGCACAGAAACACACACACACAACCAAAAAATAA [CACACA_site5425]”, the “gcPBM binding intensity (ln)” value turned out to be 8.72 ± 0.47.
“AATAAAAAAAAATGCACACATATATATATATATATA [CACACA_site2421]”: the “gcPBM binding intensity (ln)” value was 10.2 ± 0.33.
Next, “TGTTATATATAAATTTGTACACATAAATATTTTTAC [XGTACX_site5873]”: 8.71 ± 0.24.
For “TTTTTATTTATATGTATACACACTTTAATTAAAAGT [CACACA_site2525]” the value was 8.97 ± 0.73; for “CAGAATATATTCTATACATGCAATAGGAAATGTAGC [TGCATGCA_site110]”, 9.39 ± 0.35.
Take “TTATAATCTATACATATATATGTATGTATGTCTCAA [CACACA_negctrl_site1702]”: the “gcPBM binding intensity (ln)” value is 8.29 ± 0.32.
Next, “AAATGCGTATATAACGCATGTATAAGAACATTTTTT [TGCATGCA_site225]”: 8.37 ± 0.54; “GAAGTATTATTAAAGCTGCACTTTTCTAAAATAAAC [GTGCAC_site9429]”: 8.43 ± 0.11; “ACATCATTTTTATGTACACACACATATACGTTGAAT [CACACA_site5095]”: 8.97 ± 0.29.
For “TAAAATTTACAACACTGTACTTGAATTTATCTTTAA [XGTACX_site241]” the value was 8.25 ± 0.37; for “CATTAATTTAATAAATGTACATAAAATATATATTAT [XGTACX_site8085]”, 8.9 ± 0.51; for “GCAGTATGCGATCAGTGTACGAGTTATTTTATAAAA [XGTACX_site4764]”, 8.4 ± 0.38.
As for “CTAATATATGTATGCACACACAATATATACATATTT [CACACA_site3360]”, the “gcPBM binding intensity (ln)” value is 8.68 ± 0.11.
Next, “GTTATACACATATATACACACATATGTAAATATATA [CACACA_site9080]”: 8.52 ± 0.33.
“GTCCTTACTAATTAATTTTAGGCCATATAGTTTGTC [XGTACX_negctrl_site199]”: the “gcPBM binding intensity (ln)” value is 8.9 ± 0.45.
Next, “ATATTACAAATATAATGTACAAAATATAAATATGCA [XGTACX_site8106]”: 8.72 ± 0.45; “TGCCATATATATATTAAATACATAATAATGAGCCTA [GTGCAC_negctrl_site10]”: 8.18 ± 0.26; “AAAATATATAATTTTTAACACACAAAAAAAAAAAAA [CACACA_site9192]”: 8.4 ± 0.47.
Next, “ATAAACAAAAAAAAAAAATATATCAATATATATATA [CACACA_negctrl_site299]”: 9.53 ± 0.25; “AGTCATAAATTTATTTGTACATATAATATATATATA [XGTACX_site8489]”: 9.48 ± 0.25; “ATGTTATATTTTTTTATACACACTGGGATATATAAA [CACACA_site6244]”: 8.6 ± 0.37.
Next, “TTCATTGTGTTAACGGTGCATATATTTTTTCACCGT [GTGCAC_site9464]”: 9.05 ± 0.27; “ATATTAAAAAAATATGCATGCAAATATTATTTTGTA [TGCATGCA_site191]”: 9.79 ± 0.42.
Consider “TAAAAATATAAAAAGTGTACAATATATAAATTAATA [XGTACX_site1606]”, for which the “gcPBM binding intensity (ln)” value stood at 8.62 ± 0.39.
For “TTTTTCTTTTTTTTTTTAATAATATATAACAAATTT [CACACA_negctrl_site1724]” the value was 8.29 ± 0.43.
Consider “TATTTAATTAATATAATATTAAACGGAAAAGATAAA [TGCATGCA_negctrl_site148]”, for which the “gcPBM binding intensity (ln)” value turned out to be 8.72 ± 0.45.
“AATCAAATTTTCAAGTCGCACCAAACAAAAAAATGA [CACACA_negctrl_site1397]”: the “gcPBM binding intensity (ln)” value amounted to 8.67 ± 0.35.
For the sequence “TATTTTTATTTTCCTTCACACATTTTTTATATTTTT [CACACA_site5830]”, the “gcPBM binding intensity (ln)” value is 8.94 ± 0.53.
For “TTTTAATTTATCGACACACGCATGAATAGAAATTAG [CACACA_site3361]” the value was 8.55 ± 0.31.
For the sequence “AAAAAAAAAAAAAAAACACACATATAGATTATTGTA [CACACA_site7797]”, the “gcPBM binding intensity (ln)” value worked out at 8.33 ± 0.38.
Turning to “AACACAATAAAAATTAAAAATGTTAAGTAAATATAA [GTGCAC_negctrl_site60]”, the “gcPBM binding intensity (ln)” value turned out to be 8.43 ± 0.26.
Next, “TTATAATTTAATAAATGTACATAAATAATATACATA [XGTACX_site7271]”: 8.26 ± 0.18; “AGACAATATCTTATTTGTACATATGTATTCCTCATA [XGTACX_site5757]”: 8.56 ± 0.99.
Next, “ACTTTTTTTTTTTTTTTAGATTACATAAATATAAAT [CACACA_negctrl_site139]”: 8.36 ± 0.33.
